# According to the supplement of paper PMC8728848:
# The other results are listed elsewhere or left out.
# B1: SP8524D-bot-399-27-399 (Bacteroides ovatus) (protein)
# chain: DAKYDTLDTHAYIEEALSSTSQKVTVQATGESFTTLNVHLSNLSSTDNHYKLVTDQSVLDTYNHINGTGYIMLPKDYYTLPETITVKAGQYAADALSIALKAFSQEMMKSGESYALPVKLVLQDGSISPMENTGTFVILAESIIEFSAPMFVGAPSLKANKFTESPETYSQYTIEVRFQVANTADRDRAVFKNGGDDANFILLRFEDPQSDNENYKAHSLVQIVGRNRLYLNPSNSFKPNEWQHLALVCDGSNYRLYINGVDSGVLSIPTGATTFSDVNWFCLGDDSYSRWGNCKILMSEARIWSVVRSASQIQNNMTQVSPKSVGLEAYWRFNEGQGNVFEDATGKGHTLTTSATPTWIDGILSTDKSTEWK
# What was measured:
# Experiment in all cases: glycan array binding signal (z-score within array); higher = stronger binding
# Details in all cases: glycan notation: IUPAC condensed, linker removed
# Fuc(a1-2)Gal = target: Fuc(a1-2)Gal
# Method in brief: (§1)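 Arrays were curated from the Consortium for Functional Glycomics database, 3228 in total, and kept only where the protein sequence was available. Binding is expressed as a within-array Z-score. This score was averaged across arrays of the same protein sequence at different concentrations or buffers and across linkers, and negative values can be read as non-binding.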
# Fuc(a1-2)Gal(b1-3)GalNAc = target: Fuc(a1-2)Gal(b1-3)GalNAc
# Method in brief: as §1
# [1] = target: Fuc(a1-2)Gal(b1-3)GalNAc(a1-3)[Fuc(a1-2)]Gal(b1-4)Glc
# Method in brief: as §1
# [2] = target: Fuc(a1-2)Gal(b1-3)GalNAc(a1-3)[Fuc(a1-2)]Gal(b1-4)GlcNAc
# Method in brief: as §1
# [3] = target: Fuc(a1-2)Gal(b1-3)GalNAc(b1-3)Gal
# Method in brief: as §1
# [4] = target: Fuc(a1-2)Gal(b1-3)GalNAc(b1-3)Gal(a1-4)Gal(b1-4)Glc
# Method in brief: as §1
# [5] = target: Fuc(a1-2)Gal(b1-3)GalNAc(b1-4)[Neu5Ac(a2-3)]Gal(b1-4)Glc
# Method in brief: as §1
# Fuc(a1-2)Gal(b1-3)GlcNAc = target: Fuc(a1-2)Gal(b1-3)GlcNAc
# Method in brief: as §1
# [6] = target: Fuc(a1-2)Gal(b1-3)GlcNAc(b1-2)Man(a1-3)[Fuc(a1-2)Gal(b1-3)GlcNAc(b1-2)Man(a1-6)]Man(b1-4)GlcNAc(b1-4)GlcNAc
# Method in brief: as §1
# [7] = target: Fuc(a1-2)Gal(b1-3)GlcNAc(b1-2)Man(a1-3)[Fuc(a1-2)Gal(b1-3)GlcNAc(b1-2)Man(a1-6)]Man(b1-4)GlcNAc(b1-4)[Fuc(a1-6)]GlcNAc
# Method in brief: as §1
# [8] = target: Fuc(a1-2)Gal(b1-3)GlcNAc(b1-3)Gal(b1-4)Glc
# Method in brief: as §1
# [9] = target: Fuc(a1-2)Gal(b1-3)GlcNAc(b1-3)GalNAc
# Method in brief: as §1
# [10] = target: Fuc(a1-2)Gal(b1-3)GlcNAc(b1-3)[Fuc(a1-2)Gal(b1-3)GlcNAc(b1-6)]GalNAc
# Method in brief: as §1
# [11] = target: Fuc(a1-2)Gal(b1-3)GlcNAc(b1-3)[Gal(b1-4)GlcNAc(b1-6)]Gal(b1-4)Glc
# Method in brief: as §1
# [12] = target: Fuc(a1-2)Gal(b1-3)GlcNAc(b1-3)[Neu5Ac(a2-6)Gal(b1-4)GlcNAc(b1-6)]Gal(b1-4)Glc
# Method in brief: as §1
# [13] = target: Fuc(a1-2)Gal(b1-3)GlcNAc6S
# Method in brief: as §1
# [14] = target: Fuc(a1-2)Gal(b1-3)[Fuc(a1-4)]GlcNAc
# Method in brief: as §1
# [15] = target: Fuc(a1-2)Gal(b1-3)[Fuc(a1-4)]GlcNAc(b1-2)Man(a1-3)[Fuc(a1-2)Gal(b1-3)[Fuc(a1-4)]GlcNAc(b1-2)Man(a1-3)]Man(b1-4)GlcNAc(b1-4)GlcNAc
# Method in brief: as §1
# [16] = target: Fuc(a1-2)Gal(b1-3)[Fuc(a1-4)]GlcNAc(b1-2)Man(a1-3)[Fuc(a1-2)Gal(b1-3)[Fuc(a1-4)]GlcNAc(b1-2)Man(a1-6)]Man(b1-4)GlcNAc(b1-4)[Fuc(a1-6)]GlcNAc(b1-4)[Fuc(a1-6)]GlcNAc
# Method in brief: as §1
# [17] = target: Fuc(a1-2)Gal(b1-3)[Fuc(a1-4)]GlcNAc(b1-3)[Fuc(a1-3)[Gal(b1-4)]GlcNAc(b1-6)]Gal(b1-4)Glc
# Method in brief: as §1
# [18] = target: Fuc(a1-2)Gal(b1-3)[Fuc(a1-4)]GlcNAc(b1-3)[Gal(b1-4)GlcNAc(b1-6)]Gal(b1-4)Glc
# Method in brief: as §1
# Fuc(a1-2)Gal(b1-4)Glc = target: Fuc(a1-2)Gal(b1-4)Glc
# Method in brief: as §1
# Fuc(a1-2)Gal(b1-4)Glc6S = target: Fuc(a1-2)Gal(b1-4)Glc6S
# Method in brief: as §1
# Fuc(a1-2)Gal(b1-4)GlcNAc = target: Fuc(a1-2)Gal(b1-4)GlcNAc
# Method in brief: as §1
# [19] = target: Fuc(a1-2)Gal(b1-4)GlcNAc(b1-2)Man
# Method in brief: as §1
# [20] = target: Fuc(a1-2)Gal(b1-4)GlcNAc(b1-2)Man(a1-3)[Fuc(a1-2)Gal(b1-4)GlcNAc(b1-2)Man(a1-6)]Man(b1-4)GlcNAc(b1-4)GlcNAc
# Method in brief: as §1
# [21] = target: Fuc(a1-2)Gal(b1-4)GlcNAc(b1-2)Man(a1-3)[Fuc(a1-2)Gal(b1-4)GlcNAc(b1-2)Man(a1-6)]Man(b1-4)GlcNAc(b1-4)[Fuc(a1-6)]GlcNAc
# Method in brief: as §1
# [22] = target: Fuc(a1-2)Gal(b1-4)GlcNAc(b1-2)[Fuc(a1-2)Gal(b1-4)GlcNAc(b1-4)]Man(a1-3)[Fuc(a1-2)Gal(b1-4)GlcNAc(b1-2)Man(a1-6)]Man(b1-4)GlcNAc(b1-4)GlcNAc
# Method in brief: as §1
# [23] = target: Fuc(a1-2)Gal(b1-4)GlcNAc(b1-3)Gal(b1-4)GlcNAc
# Method in brief: as §1
# [24] = target: Fuc(a1-2)Gal(b1-4)GlcNAc(b1-3)Gal(b1-4)GlcNAc(b1-2)Man(a1-3)[Fuc(a1-2)Gal(b1-4)GlcNAc(b1-3)Gal(b1-4)GlcNAc(b1-2)Man(a1-6)]Man(b1-4)GlcNAc(b1-4)GlcNAc
# Method in brief: as §1
binder,measurement,setting,value
B1,glycan array binding signal (z-score),Fuc(a1-2)Gal,-0.281
same,glycan array binding signal (z-score),Fuc(a1-2)Gal(b1-3)GalNAc,-0.161
same,glycan array binding signal (z-score),[1],0.286
same,glycan array binding signal (z-score),[2],-0.344
same,glycan array binding signal (z-score),[3],-0.229
same,glycan array binding signal (z-score),[4],-0.154
same,glycan array binding signal (z-score),[5],-0.061
same,glycan array binding signal (z-score),Fuc(a1-2)Gal(b1-3)GlcNAc,0.107
same,glycan array binding signal (z-score),[6],-0.113
same,glycan array binding signal (z-score),[7],-0.42
same,glycan array binding signal (z-score),[8],-0.093
same,glycan array binding signal (z-score),[9],-0.261
same,glycan array binding signal (z-score),[10],-0.116
same,glycan array binding signal (z-score),[11],-0.119
same,glycan array binding signal (z-score),[12],-0.348
same,glycan array binding signal (z-score),[13],0.465
same,glycan array binding signal (z-score),[14],-0.057
same,glycan array binding signal (z-score),[15],-0.431
same,glycan array binding signal (z-score),[16],0.483
same,glycan array binding signal (z-score),[17],-0.546
same,glycan array binding signal (z-score),[18],-0.547
same,glycan array binding signal (z-score),Fuc(a1-2)Gal(b1-4)Glc,-0.082
same,glycan array binding signal (z-score),Fuc(a1-2)Gal(b1-4)Glc6S,-0.198
same,glycan array binding signal (z-score),Fuc(a1-2)Gal(b1-4)GlcNAc,-0.088
same,glycan array binding signal (z-score),[19],0.082
same,glycan array binding signal (z-score),[20],-0.089
same,glycan array binding signal (z-score),[21],-0.328
same,glycan array binding signal (z-score),[22],0.179
same,glycan array binding signal (z-score),[23],-0.184
same,glycan array binding signal (z-score),[24],0.218
